In the supplement of paper PMC8728848:
The other results are listed elsewhere or left out.

What was measured:
Test in all cases: glycan array binding signal (z-score within array); higher = stronger binding
Settings in all cases: glycan notation: IUPAC condensed, linker removed
[1] = molecular target: Neu5Ac(a2-3)[GalNAc(b1-4)]Gal(b1-4)Glc
In short: (§1)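 Columns mapping to the same glycan were averaged after glycan names were converted to IUPAC-condensed notation. The data come from 3228 arrays in the Consortium for Functional Glycomics database, limited to those with an available protein sequence. Binding is reported as a within-array Z-score averaged across arrays of one protein sequence and across linkers.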

[2] = molecular target: Neu5Ac(a2-3)[GalNAc(b1-4)]Gal(b1-4)GlcNAc
In short: as §1

[3] = molecular target: Neu5Ac(a2-3)[GalNAc(b1-4)]Gal(b1-4)GlcNAc(b1-3)GalNAc
In short: as §1

[4] = molecular target: Neu5Ac(a2-3)[Neu5Ac(a2-6)]GalNAc
In short: as §1

[5] = molecular target: Neu5Ac(a2-6)Gal
In short: as §1

[6] = molecular target: Neu5Ac(a2-6)Gal(b1-3)GlcNAc(b1-3)[Gal(b1-4)GlcNAc(b1-6)]Gal(b1-4)Glc
In short: as §1

[7] = molecular target: Neu5Ac(a2-6)Gal(b1-4)Glc
In short: as §1

[8] = molecular target: Neu5Ac(a2-6)Gal(b1-4)GlcNAc
In short: as §1

[9] = molecular target: Neu5Ac(a2-6)Gal(b1-4)GlcNAc(b1-2)Man
In short: as §1

[10] = molecular target: Neu5Ac(a2-6)Gal(b1-4)GlcNAc(b1-2)Man(a1-3)Man(b1-4)GlcNAc(b1-4)GlcNAc
In short: as §1

[11] = molecular target: Neu5Ac(a2-6)Gal(b1-4)GlcNAc(b1-2)Man(a1-3)[Gal(b1-4)GlcNAc(b1-2)Man(a1-6)]Man(b1-4)GlcNAc(b1-4)GlcNAc
In short: as §1

[12] = molecular target: Neu5Ac(a2-6)Gal(b1-4)GlcNAc(b1-2)Man(a1-3)[GlcNAc(b1-2)Man(a1-6)]Man(b1-4)GlcNAc(b1-4)GlcNAc
In short: as §1

[13] = molecular target: Neu5Ac(a2-6)Gal(b1-4)GlcNAc(b1-2)Man(a1-3)[GlcNAc(b1-2)Man(b1-4)GlcNAc(b1-2)Man(a1-6)]Man(b1-4)GlcNAc(b1-4)GlcNAc
In short: as §1

[14] = molecular target: Neu5Ac(a2-6)Gal(b1-4)GlcNAc(b1-2)Man(a1-3)[GlcNAc(b1-4)][Neu5Ac(a2-6)Gal(b1-4)GlcNAc(b1-2)Man(a1-6)]Man(b1-4)GlcNAc(b1-4)GlcNAc
In short: as §1

[15] = molecular target: Neu5Ac(a2-6)Gal(b1-4)GlcNAc(b1-2)Man(a1-3)[Man(a1-6)]Man(b1-4)GlcNAc(b1-4)GlcNAc
In short: as §1

[16] = molecular target: Neu5Ac(a2-6)Gal(b1-4)GlcNAc(b1-2)Man(a1-3)[Neu5Ac(a2-3)Gal(b1-4)GlcNAc(b1-2)Man(a1-6)]Man(b1-4)GlcNAc(b1-4)GlcNAc
In short: as §1

[17] = molecular target: Neu5Ac(a2-6)Gal(b1-4)GlcNAc(b1-2)Man(a1-3)[Neu5Ac(a2-6)Gal(b1-4)GlcNAc(b1-2)Man(a1-6)]Man(b1-4)GlcNAc(b1-4)GlcNAc
In short: as §1

[18] = molecular target: Neu5Ac(a2-6)Gal(b1-4)GlcNAc(b1-2)Man(a1-3)[Neu5Ac(a2-6)Gal(b1-4)GlcNAc(b1-2)Man(a1-6)]Man(b1-4)GlcNAc(b1-4)[Fuc(a1-6)]GlcNAc
In short: as §1

[19] = molecular target: Neu5Ac(a2-6)Gal(b1-4)GlcNAc(b1-2)Man(a1-6)Man(b1-4)GlcNAc(b1-4)GlcNAc
In short: as §1

[20] = molecular target: Neu5Ac(a2-6)Gal(b1-4)GlcNAc(b1-2)Man(a1-6)[Gal(b1-4)GlcNAc(b1-2)Man(a1-3)]Man(b1-4)GlcNAc(b1-4)GlcNAc
In short: as §1

[21] = molecular target: Neu5Ac(a2-6)Gal(b1-4)GlcNAc(b1-2)Man(a1-6)[GlcNAc(b1-2)Man(a1-3)]Man(b1-4)GlcNAc(b1-4)GlcNAc
In short: as §1

[22] = molecular target: Neu5Ac(a2-6)Gal(b1-4)GlcNAc(b1-2)Man(a1-6)[Man(a1-3)]Man(b1-4)GlcNAc(b1-4)GlcNAc
In short: as §1

[23] = molecular target: Neu5Ac(a2-6)Gal(b1-4)GlcNAc(b1-2)[Neu5Ac(a2-6)Gal(b1-4)GlcNAc(b1-4)]Man(a1-3)[GlcNAc(b1-4)][Neu5Ac(a2-6)Gal(b1-4)GlcNAc(b1-2)[Neu5Ac(a2-6)Gal(b1-4)GlcNAc(b1-6)]Man(a1-6)]Man(b1-4)GlcNAc(b1-4)GlcNAc
In short: as §1

[24] = molecular target: Neu5Ac(a2-6)Gal(b1-4)GlcNAc(b1-2)[Neu5Ac(a2-6)Gal(b1-4)GlcNAc(b1-4)]Man(a1-3)[GlcNAc(b1-4)][Neu5Ac(a2-6)Gal(b1-4)GlcNAc(b1-4)Man(a1-6)]Man(b1-4)GlcNAc(b1-4)GlcNAc
In short: as §1

[25] = molecular target: Neu5Ac(a2-6)Gal(b1-4)GlcNAc(b1-2)[Neu5Ac(a2-6)Gal(b1-4)GlcNAc(b1-6)]Man(a1-6)[Neu5Ac(a2-6)Gal(b1-4)GlcNAc(b1-2)Man(a1-3)][GlcNAc(b1-4)]Man(b1-4)GlcNAc(b1-4)GlcNAc
In short: as §1

[26] = molecular target: Neu5Ac(a2-6)Gal(b1-4)GlcNAc(b1-3)Gal(b1-3)GlcNAc
In short: as §1

[27] = molecular target: Neu5Ac(a2-6)Gal(b1-4)GlcNAc(b1-3)Gal(b1-4)GlcNAc
In short: as §1

[28] = molecular target: Neu5Ac(a2-6)Gal(b1-4)GlcNAc(b1-3)Gal(b1-4)GlcNAc(b1-2)Man(a1-3)[Neu5Ac(a2-6)Gal(b1-4)GlcNAc(b1-3)Gal(b1-4)GlcNAc(b1-2)Man(a1-6)]GalNAc
In short: as §1

[29] = molecular target: Neu5Ac(a2-6)Gal(b1-4)GlcNAc(b1-3)Gal(b1-4)GlcNAc(b1-3)Gal(b1-4)GlcNAc
In short: as §1

[30] = molecular target: Neu5Ac(a2-6)Gal(b1-4)GlcNAc(b1-3)Gal(b1-4)GlcNAc(b1-3)Gal(b1-4)GlcNAc(b1-2)Man(a1-3)[Neu5Ac(a2-6)Gal(b1-4)GlcNAc(b1-3)Gal(b1-4)GlcNAc(b1-3)Gal(b1-4)GlcNAc(b1-2)Man(a1-6)]GalNAc
In short: as §1

[31] = molecular target: Neu5Ac(a2-6)Gal(b1-4)GlcNAc(b1-3)Gal(b1-4)GlcNAc(b1-3)GalNAc
In short: as §1

[32] = molecular target: Neu5Ac(a2-6)Gal(b1-4)GlcNAc(b1-3)Gal(b1-4)GlcNAc(b1-3)[Neu5Ac(a2-6)Gal(b1-4)GlcNAc(b1-3)Gal(b1-4)GlcNAc(b1-6)]GalNAc
In short: as §1

[33] = molecular target: Neu5Ac(a2-6)Gal(b1-4)GlcNAc(b1-3)Gal(b1-4)GlcNAc(b1-6)[Gal(b1-3)]GalNAc
In short: as §1

[34] = molecular target: Neu5Ac(a2-6)Gal(b1-4)GlcNAc(b1-3)Gal(b1-4)[Fuc(a1-3)]GlcNAc(b1-3)Gal(b1-4)[Fuc(a1-3)]GlcNAc
In short: as §1

[35] = molecular target: Neu5Ac(a2-6)Gal(b1-4)GlcNAc(b1-3)GalNAc
In short: as §1

[36] = molecular target: Neu5Ac(a2-6)Gal(b1-4)GlcNAc(b1-3)[Neu5Ac(a2-6)Gal(b1-4)GlcNAc(b1-6)]GalNAc
In short: as §1

[37] = molecular target: Neu5Ac(a2-6)Gal(b1-4)GlcNAc(b1-6)GalNAc
In short: as §1

[38] = molecular target: Neu5Ac(a2-6)Gal(b1-4)GlcNAc(b1-6)[Gal(b1-3)GlcNAc(b1-3)]Gal(b1-4)Glc
In short: as §1

B1: HPA (Helix pomatia), Q575S3 (protein)
chain: MWAHLTGLLLICALSLSAAQRAQTGEIDCGSDSSWPKDPSDNPNRDNTREIVKHVTFSPQFCREPKVILSVTTLDAEHTKNLRYEARLKSVSPSGLSASCYSWHDGTIYRMKLSWLAVED
Question: With B1 as the binder, how does the “glycan array binding signal (z-score)” value [1] read?
Answer: The value was 0.07.

Question: And the “glycan array binding signal (z-score)” value [2]?
Answer: Its value is -0.104.

Question: And the “glycan array binding signal (z-score)” value [3]?
Answer: The value was -0.2.

Question: And the “glycan array binding signal (z-score)” value [4]?
Answer: Its value is -0.263.

Question: What about the “glycan array binding signal (z-score)” value [5] of the same binder?
Answer: Its value is -0.258.

Question: What about the “glycan array binding signal (z-score)” value [6] of the same binder?
Answer: The value was -0.25.

Question: What about the “glycan array binding signal (z-score)” value [7] of the same binder?
Answer: Its value is -0.262.

Question: And the “glycan array binding signal (z-score)” value [8]?
Answer: The value was -0.262.

Question: And the “glycan array binding signal (z-score)” value [9]?
Answer: Its value is -0.251.

Question: And the “glycan array binding signal (z-score)” value [10]?
Answer: Its value is -0.265.

Question: And the “glycan array binding signal (z-score)” value [11]?
Answer: Its value is -0.261.

Question: And the “glycan array binding signal (z-score)” value [12]?
Answer: The value was -0.251.

Question: And the “glycan array binding signal (z-score)” value [13]?
Answer: Its value is -0.277.

Question: And the “glycan array binding signal (z-score)” value [14]?
Answer: Its value is -0.263.

Question: And the “glycan array binding signal (z-score)” value [15]?
Answer: The value was -0.27.

Question: And the “glycan array binding signal (z-score)” value [16]?
Answer: Its value is -0.254.

Question: And the “glycan array binding signal (z-score)” value [17]?
Answer: Its value is -0.254.

Question: And the “glycan array binding signal (z-score)” value [18]?
Answer: Its value is -0.259.

Question: And the “glycan array binding signal (z-score)” value [19]?
Answer: Its value is -0.27.

Question: And the “glycan array binding signal (z-score)” value [20]?
Answer: Its value is -0.291.

Question: What about the “glycan array binding signal (z-score)” value [21] of the same binder?
Answer: Its value is -0.257.

Question: What about the “glycan array binding signal (z-score)” value [22] of the same binder?
Answer: Its value is -0.266.

Question: And the “glycan array binding signal (z-score)” value [23]?
Answer: Its value is -0.254.

Question: And the “glycan array binding signal (z-score)” value [24]?
Answer: The value was -0.258.

Question: And the “glycan array binding signal (z-score)” value [25]?
Answer: Its value is -0.264.

Question: And the “glycan array binding signal (z-score)” value [26]?
Answer: The value was -0.266.

Question: And the “glycan array binding signal (z-score)” value [27]?
Answer: The value was -0.263.

Question: What about the “glycan array binding signal (z-score)” value [28] of the same binder?
Answer: Its value is -0.243.

Question: What about the “glycan array binding signal (z-score)” value [29] of the same binder?
Answer: Its value is -0.264.

Question: And the “glycan array binding signal (z-score)” value [30]?
Answer: Its value is -0.164.

Question: What about the “glycan array binding signal (z-score)” value [31] of the same binder?
Answer: The value was -0.255.

Question: And the “glycan array binding signal (z-score)” value [32]?
Answer: The value was -0.147.

Question: What about the “glycan array binding signal (z-score)” value [33] of the same binder?
Answer: Its value is -0.238.

Question: And the “glycan array binding signal (z-score)” value [34]?
Answer: Its value is -0.253.

Question: What about the “glycan array binding signal (z-score)” value [35] of the same binder?
Answer: Its value is -0.07.

Question: What about the “glycan array binding signal (z-score)” value [36] of the same binder?
Answer: The value was -0.258.

Question: What about the “glycan array binding signal (z-score)” value [37] of the same binder?
Answer: The value was -0.246.

Question: What about the “glycan array binding signal (z-score)” value [38] of the same binder?
Answer: The value was -0.261.
